“And” between values parts separate entries of the source, which are not always exact repeats. Identical values can stand only once. Out of some 340,000 compounds screened, about 12,000 (3.5%) were called active. This list was built around the results that the source calls inconclusive (neither active nor inactive); the mix of calls is not that of the screen. Calls come from the whole dose curve; as a rule, active = well fitted inhibition curve with a large enough effect; inconclusive = small, poorly fitted or top-dose-only effect, or another doubt; inactive = no such curve, though single readings can be large or run the other way. Where the call is inconclusive, the potency comes from a doubtful curve fit.
Assay: qHTS Assay for Inhibitors of Hepatitis C Virus (HCV)
Details: Huh7.5.1 HCVcc-Cre (HCVcc is cell-culture hepatitis C virus) infection, luciferase reporter, 44 h; activity change, negative = inhibition: at 41.8 µM (top of the series) unless noted
Method in brief: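 1,000 cells/well; 4 h culture; + compound; + HCVcc-Cre (~0.5 moi); 44 h; luciferase substrate, RT 15 min; read 15 sec.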
In the case of COc1cccc(NC(=O)c2ccn(C)n2)c1, the “activity change, negative = inhibition” value is reported as inactive: 4.26%.
With CSCCC1NC(=S)N(Cc2ccccc2)C1=O (stereo not drawn) the “activity change, negative = inhibition” value was inactive: 7.44%.
With CN(C(=O)C1CCCN(c2ncnc3c2nc2n3CCCCC2)C1)c1cccc(Cl)c1 (stereo not drawn) the Potency was inconclusive: 22.4 µM [inhibitor, single point].
For Cn1c(O)c(N=NC(=O)c2ccccc2O)c2ccccc21, the Potency was inconclusive: 2.51 µM [inhibitor, full curve, poor fit].
For Cc1cc(NC(=O)Nc2cccc(Cl)c2)n(-c2ccccn2)n1, the Potency was active: 11.2 µM.
In the case of Cc1cc(C)c2c(c1)-c1c(ssc1=S)C(C)(C)N2C(=O)CSc1nncn1C, the Potency is reported as active: 12.6 µM.
With COc1ccccc1-c1nnc(SCC(=O)Nc2ccc3[nH]c(=O)[nH]c3c2)n1N the “activity change, negative = inhibition” value was inactive: -7.56%.
With COc1ccc(C(=O)Nc2cc3c4c(c2)CC(=O)N4CCC3)cc1 the Potency was active: 2.24 µM.
With COc1ccc(C(=O)NC(=S)NNC(=O)CCc2ccccc2)cc1 the Potency was inconclusive: 1.58 µM [inhibitor, full curve].
In the case of COc1ccc(CC(=O)Nc2ccncc2Cl)cc1, the Potency is reported as active: 6.31 µM.
For Cc1cccc2cc(/C=N/NC(=O)c3ccncc3)c(Cl)nc12, the Potency was inconclusive: 1.26 µM [inhibitor, partial curve].
In the case of COc1ccc([C@H]2CC(=O)C=C(c3ccc(Cl)c(F)c3)C2)cc1, the Potency is reported as inconclusive: 31.6 µM [inhibitor, single point].
For O=C(Nc1ccccc1C(=O)O)/C(=C/c1ccc(Cl)cc1Cl)NC(=O)c1ccco1, the “activity change, negative = inhibition” value was inactive: 15.5%.
For CNCCCC12CCC(c3ccccc31)c1ccccc12, the Potency was “inactive and inconclusive: 22.4 µM [inhibitor, single point]”.
For CC(C)(C)NC(=O)C(c1ccccn1)N(C(=O)c1csnn1)C1CCCCC1 (stereo not drawn), the Potency was inconclusive: 3.16 µM [inhibitor, single point].
In the case of O=C(CSc1nnc(-c2ccc(F)cc2)o1)N1CCCC1, the “activity change, negative = inhibition” value is reported as inactive: -12.2%.
With O=C(COc1ccccc1Br)NC1CCCC1 the Potency was inconclusive: 11.2 µM [inhibitor, partial curve].
In the case of COc1ccc(C(C)(C)C)cc1NC(=O)c1ccc2ncsc2c1, the Potency is reported as inconclusive: 11.2 µM [inhibitor, partial curve].
In the case of CCOC(=O)Nc1oc2ccccc2c(=O)c1CN1CCOCC1, the Potency is reported as inconclusive: 7.94 µM [inhibitor, partial curve, poor fit].
With CCN(CC)C(=O)C(Oc1ccc(S(=O)(=O)N2CCCC2)cc1[N+](=O)[O-])c1ccccc1 (stereo not drawn) the Potency was inconclusive: 31.6 µM [inhibitor, single point].
In the case of Cc1ccc(CN2C(=O)N/C(=C\c3ccc(N4CCOCC4)cc3)C2=O)cc1, the “activity change, negative = inhibition” value is reported as inactive: 12.6%.
For CSCc1cc(N(C)C)nc(SCc2ccc(Cl)cc2Cl)n1, the Potency was active: 8.91 µM.
With COc1cc2c(cc1OC)CN(C(=O)c1ccc(S(=O)(=O)N3CCCC3)cc1)CC2 the “activity change, negative = inhibition” value was inactive: -14.9%.
For C=CCn1c(-c2cccs2)nc2ccccc21, the Potency was inconclusive: 3.98 µM [inhibitor, full curve].
For CCCCN1C(=N)C(CC)(CC)C(=O)NC1=O, the “activity change, negative = inhibition” value was inactive: -4.16%.
In the case of COc1cc(NC(=O)CN2c3cccc4cccc(c34)S2(=O)=O)cc(OC)c1OC, the Potency is reported as active: 11.2 µM.
For Cc1noc(C)c1C(=O)OCC(=O)NCc1ccccc1, the “activity change, negative = inhibition” value was inactive: 15.3%.
For COc1ccccc1NC(=O)c1nnn(CC(=O)Nc2cccc(SC)c2)c1N, the Potency was inconclusive: 31.6 µM [inhibitor, single point].
For CCCCC(=O)NC(c1ccccc1)c1ccc2cccnc2c1O (stereo not drawn), the Potency was active: 2.82 µM.
With Cc1ccc(CC(=O)N2CCN(c3ccc([N+](=O)[O-])cc3)CC2)cc1 the Potency was inconclusive: 10 µM [inhibitor, partial curve].
With Cc1ccc2cc(CN(C(=O)c3cccnc3)C(C)C)c(=O)[nH]c2c1 the “activity change, negative = inhibition” value was inactive: -12.2%.
With COc1ccc(Br)cc1CN(C)C(C)C(=O)Nc1cc([N+](=O)[O-])ccc1OC (stereo not drawn) the Potency was inconclusive: 6.31 µM [inhibitor, partial curve].
For N#Cc1c(NCCO)nc(NCc2ccccc2)c2c1CCN(Cc1ccccc1)C2, the Potency was inconclusive: 31.6 µM [inhibitor, single point].
For O=C(Nc1ccc2c(c1)OCO2)C1CCN(S(=O)(=O)c2cccs2)CC1, the “activity change, negative = inhibition” value was inactive: 5.65%.
In the case of CC(=O)c1cccc(-n2nnnc2SCC(=O)Nc2cc(C)on2)c1, the Potency is reported as inconclusive: 11.2 µM [inhibitor, single point].
In the case of CCCCCNc1nc2sc3c(c2c(=O)n1-c1cccc(Cl)c1)CCN(C)C3, the Potency is reported as active: 1 µM.
With CCOC(=O)c1cnc2c(C)c(Cl)ccc2c1N1CCOCC1 the Potency was inconclusive: 7.94 µM [inhibitor, partial curve].
In the case of Cc1nn(-c2ccccc2)c(N2CCCC2)c1/C=N/NC(=S)Nc1ccc(F)cc1, the Potency is reported as inconclusive: 31.6 µM [inhibitor, single point].
In the case of CCCCN1CCc2[nH]c(=S)[nH]c(=O)c2C1, the “activity change, negative = inhibition” value is reported as inactive: 8.27%.
With O=C(Nc1cccc(-c2cn3ccccc3n2)c1)C1CC1 the Potency was inconclusive: 12.6 µM [inhibitor, partial curve].
In the case of CCN(CC)S(=O)(=O)c1ccc(OC)c(NC(=O)OCc2ccccc2)c1, the “activity change, negative = inhibition” value is reported as inactive: -24.5%.
In the case of O=C(Nc1ccc2c(c1)OCCO2)c1oc2ccccc2c1NC(=O)C1CC1, the Potency is reported as inconclusive: 11.2 µM [inhibitor, single point].
For C=CCN1C(=O)c2ccc(C(=O)N3CCN(S(=O)(=O)c4ccc(C(C)C)cc4)CC3)cc2C1=O, the Potency was inconclusive: 31.6 µM [inhibitor, single point].
With COc1ccc(CNC(=O)C[C@H]2C[C@H](C(=O)N3CCOCC3)[C@@]3(CCC4CCCC4)c4[nH]c5ccc(Cl)cc5c4CCN3C2=O)cc1OC the Potency was inconclusive: 10 µM [inhibitor, partial curve].
For Cc1ccc(Sc2c([N+](=O)[O-])c(=O)n(C)c3ccccc23)cc1, the Potency was inconclusive: 31.6 µM [inhibitor, single point].
With Oc1ccc2c(c1)c1ccccc1c1ncccc21 the Potency was active: 11.2 µM.
For CCOC(=O)c1nnn(CC(=O)Nc2cc(F)ccc2F)c1C(=O)OCC, the “activity change, negative = inhibition” value was inactive: 4.02%.
With O=[N+]([O-])c1ccc(CN2CCN(Cc3c[nH]c4ccccc34)CC2)cc1 the Potency was inconclusive: 12.6 µM [inhibitor, single point].
In the case of CC(C)(C)n1ncc2c(=O)n(Cc3cccc(Cl)c3)cnc21, the Potency is reported as inconclusive: 22.4 µM [inhibitor, single point].
In the case of O=C(Nc1ccccc1F)c1ccc([N+](=O)[O-])s1, the Potency is reported as inconclusive: 22.4 µM [inhibitor, single point].
With COc1ccc(N2CCN(C(=O)COC(=O)c3cccc(S(=O)(=O)Nc4ccccc4OC)c3)CC2)cc1 the Potency was inconclusive: 10 µM [inhibitor, partial curve].
With Nc1ncn(C2O[C@H](CO)[C@@H](O)[C@H]2O)c(=O)n1 (stereo partly drawn) the “activity change, negative = inhibition” value was inactive: 6.83%.
For CCn1cc([N+](=O)[O-])c(C(=O)N2N=C3/C(=C/c4cccs4)CCCC3C2c2cccs2)n1 (stereo not drawn), the Potency was active: 10 µM.
In the case of Clc1ccc(Nc2ccc(NCc3ccccc3)nn2)cc1, the Potency is reported as inconclusive: 3.55 µM [inhibitor, partial curve].
For CCn1c(COc2ccc(C)cc2)nnc1SCC(=O)Nc1cc(OC)ccc1OC, the Potency was inconclusive: 4.47 µM [inhibitor, partial curve].
With Cc1coc2c1C(=O)C(=O)c1c-2ccc2c1CCCC2(C)C the Potency was inconclusive: 11.2 µM [inhibitor, single point].
For Cc1cc(OCC(O)CN2CCc3ccccc3C2)ccc1Cl (stereo not drawn), the “activity change, negative = inhibition” value was inactive: -29.5%.
In the case of Cc1ccccc1N1CCN(C2CCCN(C(=O)c3ccccn3)C2)CC1 (stereo not drawn), the Potency is reported as inconclusive: 31.6 µM [inhibitor, single point].
For CCOc1ccc2nc(SCC(=O)N3c4ccccc4Sc4ccccc43)sc2c1, the “activity change, negative = inhibition” value was inactive: 5.39%.
In the case of N#Cc1ccc(Cl)cc1NC(=O)COC(=O)c1cccc(S(=O)(=O)N2CCOCC2)c1, the “activity change, negative = inhibition” value is reported as inactive: 11.9%.
In the case of Nc1nc(-c2ccccc2)nc(-c2ccccc2O)n1, the Potency is reported as inconclusive: 31.6 µM [inhibitor, single point].
For O=C(CSc1nc2ccc(Nc3nc(N4CCOCC4)nc(N4CCOCC4)n3)cc2s1)NCc1ccco1, the Potency was active: 5.01 µM.
For CC(C)N(C(=O)[C@H]1C[C@H](CC(=O)NCCCN(C)C)C(=O)N2CCc3c([nH]c4ccc(Cl)cc34)[C@]12C)C(C)C, the Potency was active: 10 µM.
In the case of CC(C)(C)c1cc(C(=O)NNc2ccc(OC(F)(F)F)cc2)n(Cc2ccccc2)n1, the activity change, negative = inhibition is reported as inconclusive: -72% [inhibitor].
With O=C(CSc1nnc(SCc2ccc(Cl)cc2)s1)N/N=C/c1c[nH]c2ccccc12 the Potency was inconclusive: 31.6 µM [inhibitor, single point].
With COc1ccc(-n2nc(C(=O)Nc3ccc(OC)c(OC)c3)c3c4ccccc4n(C)c3c2=O)cc1 the Potency was inconclusive: 3.55 µM [inhibitor, partial curve].
In the case of O=C(c1ccccc1)c1ccc(N2CCOCC2)c(F)c1, the “activity change, negative = inhibition” value is reported as inactive: -11.3%.
With CN(C)c1cc[n+](CC(=O)Nc2c(Cl)cc(Cl)cc2Cl)cc1 the “activity change, negative = inhibition” value was inactive: -3.21%.
With CCc1ccc(C(=O)Nc2nc3ccccc3[nH]2)cc1 the Potency was inconclusive: 28.2 µM [inhibitor, single point].
For CC(C)(CO)NC12CC3CC(CC(C3)C1)C2, the “activity change, negative = inhibition” value was inactive: 8.06%.
In the case of CN1CCN(CCCNC(=O)c2cc3c(=O)oc4ccccc4c3s2)CC1, the Potency is reported as inconclusive: 25.1 µM [inhibitor, single point].
With C[C@H](CO)N1C[C@H](C)[C@@H](CN(C)Cc2ccncc2)Oc2ccc(NC(=O)CCCCCC(=O)Nc3ccccc3N)cc2C1=O the “activity change, negative = inhibition” value was inactive: 0.481%.
With CC(C)=C1C2CCC1C(C(=O)Nc1sc(C)c(-c3ccc(C(C)C)cc3)c1C(N)=O)C2C(=O)O (stereo not drawn) the Potency was inconclusive: 28.2 µM [inhibitor, single point].

— PubChem BioAssay AID651820 (National Center for Advancing Translational Sciences (NCATS), 2012)
% is set by controls: 0 for no effect and ±100 for the full control effect; potency is the fitted concentration of half-maximal effect; tags give direction and shape of the fitted curve.
